Measurements reported in the RNAGym collection of RNA variant scans (doi:10.7554/elife.90254).
Read counts are not given, so values of variants with three or more changes are uncertain.

B1: LINE1-mini (parent)
chain: GGCAGAGCUCAACACAGCGUGGCAAAGUGGCUGUGGCUAGACUGCC

Variants of: B1
Experiment: self-cleavage, relative activity (ratio to wild type); higher = more cleavage; in vitro, sequencing; the parent is a self-cleaving ribozyme

Variant | self-cleavage
A12C G21A G29U | 0.02
A12C G29C C46G | 0.02
A12G C18U A25G | 0.01
A12G G17C C37G C46U | 0
A12G A14U C23U G29C | 0.01
A12C G30U C37A | 0.01
A12C G17A U38G G44U | 0
A12G U28G G35C | 0.02
A12C C15G G40A | 0.01
A12G G36C U43C | 0.01
A12G A24U G36A | 0.06
A12C G35U U38C | 0
A12C U20G A26G | 0.16
A12G A24C G44U | 0
A12G U28G G36A C37G C46U | 0.02
A12G C18U C37U C42A G44U | 0.05
A12G C15U U20G A24U G40U | 0
A12C G30C U34C C42A | 0
A12U A16G G35A A41U U43C | 0.08
A12U A14G A16G G21C C46G | 0.01
A12G G19C C23A G33C A39G | 0.01
A12G A26C G35A G40U | 0.01
A12G G33U G40U | 0.06
A12G C37G A41G | 0.03

Variant | self-cleavage
A12C U32C U34A G35U G36U C37A | 0.01
A12C C15A C18U A39C C46A | 0.02
A12G C13G G36U U38A | 0.06
A12C G17U G21U G22C A25G U38C | 0.01
A12C C15U U32G A41U | 0
A12G U34G A39C | 0.02
A12G A14C A26C G30U | 0.01
A12C C23A G36U | 0.13
A12C C23A G36C | 0.04
A12C C13A G36U | 0.02
A12C U34G A41C | 0.05
A12G U20A G33C | 0.02
A12C C13U C15A C37G C45U | 0
A12G C15U G33U | 0.03
A12G A39G G40U | 0
A12G G19C G29A G36A A41C | 0.02
A12G C23U G33C | 0.04
A12G G21C C37G | 0.03
A12U A16U C23U G30U U34C C45G | 0.05
A12G G29U G40A C45U | 0.04
A12C G21C C45A | 0
A12C U28A G29A U43A C45U | 0.01
A12G G17C C42A | 0
A12C U20C A25G | 0

Variant | self-cleavage
A12C C18U U43C | 0.04
A12G A25C A41U | 0.01
A12C G21U A39U | 0.02
A12G C13U U28A | 0.02
A12G G27U C31G U34G A41U | 0.01
A12C C37A U43A | 0
A12C C18G G22A C31A G36C | 0.01
A12G C13G C18U G30A G36A | 0.03
A12G A16C G19C | 0.12
A12G C23G C42U | 0.03
A12G C13U C23U | 0.02
A12G G17A C23A G27A U34C G44U | 0.01
A12U A14C U28C | 0.02
A12C G30C C45G | 0
A12G G30U G33U C37U | 0.46
A12G A25U C46A | 0.02
A12C C13U A39U G40U | 0.02
A12G G19U G27C | 0.03
A12C G19U C42G | 0.02
A12G U28G G36U | 0.03
A12C C18G A25U C46G | 0.02
A12C C23U G30U | 0.01
A12G U28G C31A C37G | 0.04
A12C C15A G29A G35A | 0.03

Variant | self-cleavage
A12C G36A A41G | 0.09
A12G C13A G21U G22C G40U | 0.01
A12G G21C G27U | 0.01
A12C G27A U28A | 0.01
A12G C13U G19U G29A | 0.06
A12G G19U G27U G35U A41U C46A | 0.01
A12C G17A G36A C42A G44A | 0.02
A12G G36U C42U | 0.04
A12G C13G G33A | 0.03
A12G C23A G27U | 0.01
A12G G40U G44A | 0.1
A12G G21C A25C C31G C46A | 0.02
A12U A16C C23A G33U | 0.01
A12G C13U A14C | 0.03
A12C G29A C31G C42U | 0
A12G G22A A24G G35A | 0.02
A12C G21C G27C C37G U43C | 0.01
A12C C31G C37A | 0.19
A12G G19A G35U | 0.01
A12C G17A C18A C31G | 0.01
A12C G17C G19A | 0.01
A12C G36U C46U | 0.01
A12G A41U C42G | 0.05
A12G U28G G33A C42U | 0

Variant | self-cleavage
A12C U20G C42G C45A | 0.02
A12G C13A G17U G30C U38C C42U | 0.03
A12G A24U G27A G29U G30A G36C | 0.1
A12G C18G A25U C37U | 0
A12G C15U A24G G40C C46U | 0
A12G A24G U32C | 0.01
A12G A14U G17C G21A A41U | 0.01
A12C C15A G27C | 0.09
A12C C13U A26G U34C A41U G44C | 0.02
A12C G30C C42G G44C | 0
A12G C13U G17A A24U G44U | 0.01
A12C G21U G40U | 0.02
A12U A14U U34G | 0.13
A12G A14C G40U | 0.01
A12C G19C U32A | 0.03
A12C G33C U38C C42A C46G | 0.01
A12G C13A G29U C45G C46A | 0.09
A12C G17U U20A | 0.04
A12G C18A A25U A41U | 0.04
A12C U38A C45G | 0.02
A12C U38A C45U | 0.02
A12G A16G C42G | 0.01
A12G U20G G22A U28C U38C | 0.01
A12C G17A G19C G27U A39G C46U | 0

Variant | self-cleavage
A12G G22U U34G | 0.05
A12G G27U U34A | 0.03
A12C U20C G35U G40C | 0.01
A12G C31U C37U | 0.11
A12C C18G U20G G22C A26G U28A | 0
A12C G29U C37U | 0.01
A12G U32C G35A | 0.02
A12C C31A U38G | 0.01
A12G C37G C45G | 0.09
A12G C13U G30U C31G G35U | 0.04
A12C G27C G33U A41G | 0
A12G G19U G29U G36U | 0.06
A12C G44U C46U | 0.02
A12U A14G C18G U32A | 0.02
A12G C13U G22U G44C | 0
A12G G21U G22C U28G G33U | 0.23
A12C C18A A24C G35A | 0.02
A12G U28A G29C | 0.01
A12C C13U C18A U20C | 0
A12G C15A G19A G21A G22C | 0.02
A12C G27C G44U | 0.02
A12C G29C G35C U38G C42U | 0.02
A12U A14G C45A C46G | 0
A12G C15U G17U U20A G29U | 0.01

Variant | self-cleavage
A12G C37A A41C | 0.01
A12G A16C C37U C42U C45A | 0.19
A12G G35U C37U U38C G40A C45A | 0
A12G A16G A26C | 0
A12C C15U G19A G27A | 0.03
A12G C37G A39U | 0.14
A12G G27C G29C C45A | 0
A12G G19A C37G | 0.03
A12C C31A G35C U43C | 0
A12G C13U U34A | 0.07
A12G U20G A24U C31U U32C | 0.03
A12G C23U A25C C45U | 0.04
A12C C15G G19A C46A | 0
A12G U34G A41U | 0.09
A12G U28G G30A C37A | 0.13
A12G G22A A26C A39U | 0.01
A12G C13G A25G A26U G30U C37G G44A | 0.03
A12G G36A A39G | 0.03
A12C G35C C42A | 0.05
A12C G21C C37G | 0.01
A12G A26C G30A A39U | 0.03
A12G G30U C45G | 0.04
A12C G33U U34C | 0.02
